Hit rate of the full screen: of about 310,000 compounds, about 14,000 (4.5%) showed an effect of 50% or more. The effect is printed as a negative number. Some of the results follow.
Biological target: human ether-à-go-go-related gene (hERG) potassium channel (human, UniProt Q12809)
Experiment: primary screen, population patch clamp on CHO cells stably expressing hERG
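Note: peak tail current of the secondary pulse compared with the same well before compound.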

human ether-à-go-go-related gene (hERG) potassium channel, sequence (Q12809 whole entry, looked up): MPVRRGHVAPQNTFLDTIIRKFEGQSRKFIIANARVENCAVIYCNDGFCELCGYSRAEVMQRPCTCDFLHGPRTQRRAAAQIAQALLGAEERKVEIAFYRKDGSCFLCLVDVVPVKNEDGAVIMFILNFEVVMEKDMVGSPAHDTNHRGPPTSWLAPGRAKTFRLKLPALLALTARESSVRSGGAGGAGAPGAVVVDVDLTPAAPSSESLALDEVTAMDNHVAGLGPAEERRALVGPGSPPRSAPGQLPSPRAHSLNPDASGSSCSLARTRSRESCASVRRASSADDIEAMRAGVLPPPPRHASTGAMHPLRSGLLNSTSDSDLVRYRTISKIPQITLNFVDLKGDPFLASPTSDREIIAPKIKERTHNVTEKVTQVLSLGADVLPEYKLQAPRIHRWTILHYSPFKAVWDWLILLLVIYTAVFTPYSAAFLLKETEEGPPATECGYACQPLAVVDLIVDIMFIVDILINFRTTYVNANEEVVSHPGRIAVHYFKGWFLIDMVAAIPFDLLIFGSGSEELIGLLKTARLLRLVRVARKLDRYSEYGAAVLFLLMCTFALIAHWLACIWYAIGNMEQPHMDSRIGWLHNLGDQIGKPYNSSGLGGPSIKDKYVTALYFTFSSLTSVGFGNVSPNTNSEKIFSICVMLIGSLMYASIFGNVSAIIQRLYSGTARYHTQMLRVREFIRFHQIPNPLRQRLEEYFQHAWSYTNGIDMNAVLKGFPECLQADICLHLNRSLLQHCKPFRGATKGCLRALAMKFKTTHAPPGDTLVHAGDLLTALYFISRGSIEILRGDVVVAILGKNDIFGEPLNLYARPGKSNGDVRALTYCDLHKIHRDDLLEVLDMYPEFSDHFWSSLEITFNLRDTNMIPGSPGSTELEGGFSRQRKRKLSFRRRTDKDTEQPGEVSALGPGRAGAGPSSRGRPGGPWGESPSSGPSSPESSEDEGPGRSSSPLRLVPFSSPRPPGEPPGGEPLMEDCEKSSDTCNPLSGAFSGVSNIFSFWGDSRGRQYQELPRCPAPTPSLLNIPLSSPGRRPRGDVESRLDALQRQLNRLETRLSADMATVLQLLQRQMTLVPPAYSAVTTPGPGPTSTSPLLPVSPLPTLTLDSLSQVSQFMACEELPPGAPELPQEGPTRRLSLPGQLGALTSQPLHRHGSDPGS

Structure (SMILES)	hERG current change (%, negative = inhibition) at 10uM
CCOc1ccccc1NC(=O)CSc1c(C)n[nH]c1C	10.1%
COC(=O)C1=CO[C@@H](OC2OC(CO)C(O)C(O)C2O)[C@@H]2C(CO)=CC[C@H]12 (stereo partly shown)	24.6%
CC(=O)N(c1ccccc1)C(C)c1nc(C#N)c(C#N)nc1C (stereo not shown)	10.3%
CC(=O)c1ccc(S(=O)(=O)NCCc2csc(-c3cccnc3)n2)cc1	3.2%
COc1ccc(CN2C=C3C(=O)C(C)(OC(=O)C4CCCC4)C(=O)C=C3C=C2c2ccsc2)cc1 (stereo not shown)	-64.4%
CC(C)N(Cc1nc(-c2ccc3c(c2)OCO3)no1)CC1CCC(=O)N1 (stereo not shown)	11.7%
O=C1CC(N2CCOCC2)C(=O)N1c1cc(Cl)cc(Cl)c1 (stereo not shown)	8.98%
CCc1ccc(CNC(=O)C2CC(=O)N(CCc3ccc(C)cc3)C2)cc1 (stereo not shown)	-27.2%
CCN(c1ccccc1)S(=O)(=O)c1cccc(C(=O)NCc2ccncc2)c1	-28.1%
CC(=O)c1ccc(NC(=O)CSc2nc(=O)cc(N)n2-c2ccccc2)cc1	-36.6%
O=C1N=C(N2CCCC2)S/C1=C\c1cccc(Br)c1	-35.8%
CCN(CC)S(=O)(=O)c1ccc(O)c(C(=O)OCC(=O)Nc2ccc(OC(F)(F)F)cc2)c1	-9.19%
COc1ccc(NC(=O)CN2CCN(c3ccc(F)cc3)CC2)cc1Cl	-5.96%
COc1ccccc1C(=O)NCCC(=O)Nc1nc2ccccc2[nH]1	-12.6%
COc1ccc(C(=O)N2N=C3CC(C)(C)OCC3C2c2ccccc2)cc1 (stereo not shown)	-24.1%
COc1ccc(CN=C2NC(=O)CC(C(=O)Nc3ccccc3C)S2)cc1 (stereo not shown)	-15%
CCCS(=O)(=O)c1c(S(=O)(=O)CCC)c2c(C)cccn2c1C(=O)N/N=C/c1cc(O)cc(O)c1	9.21%
c1ccc(CCCNc2ncnc3nc[nH]c23)cc1	-10.4%
Cc1nn(Cc2ccc(Cl)cc2Cl)c(Cl)c1/C=C/C(=O)OCC(=O)NCC(F)(F)F	1.04%
CCCC(=O)Nc1cccc(-c2nc3ccccc3c(=O)o2)c1	11.2%
CCN1CCN(c2ccc(NC(=O)c3cccc(F)c3)cc2Cl)CC1	-75.2%
COc1ccc(OC)c(C2=NS(=O)(=O)N(C)C(C(=O)NCc3ccco3)=C2)c1	-17.4%
CCOc1ccc(C2=NNC(c3cccs3)=Nc3ccc(OC)cc32)cc1	-16.6%
Cc1ccc2nc(-c3ccc(N4C(=O)CC(N5CCN(CCO)CC5)C4=O)cc3)sc2c1 (stereo not shown)	-3.5%
CSc1cccc(NC(=O)c2c(Cl)cnn2C)c1	-4.22%
CCOC(=O)c1cc2c(=O)n3ccccc3nc2n(Cc2ccco2)c1=NC(=O)c1ccc(OC)cc1	-54.3%
CSc1nnc2c(n1)OC1(Nc3ccccc3-2)C(=O)Nc2ccccc21 (stereo not shown)	12.9%
COCCNC(=O)C(c1ccc(C)o1)N(C(=O)c1snc(C(N)=O)c1N)c1ccc(C)c(C)c1 (stereo not shown)	-15.5%

Structure (SMILES)	hERG current change (%, negative = inhibition) at 10uM
COc1cc(OC)c2c(C)cc(=O)oc2c1C(CCN1CCOCC1)c1ccc2c(c1)OCO2 (stereo not shown)	-68.4%
NS(=O)(=O)OCCCc1ccc(C(F)(F)F)cc1	1.38%
CC(=O)Oc1cccc(N2C(=O)C3C(C2=O)C2C=CC3C23CC3)c1 (stereo not shown)	5.03%
C/C(=N\NC(=O)c1cc2ccccc2cc1O)c1cccs1	20.5%
COc1ccc2sc(-c3ccc(SC)cc3)c(C#CC(C)(C)O)c2c1	11.6%
c1coc(CNc2ncnc3nc[nH]c23)c1	21.6%
CCOC(=O)CNC(=O)Cn1cnc2c(nnn2-c2cccc(OC)c2)c1=O	17.5%
Cn1c(=O)n(C)c2cc(N3CCCC3)c(NC(=O)c3cccc(F)c3)cc21	-1.06%
CC#CCN(Cc1ccco1)C(=O)c1ccc(OC2CCN(Cc3ccccn3)CC2)cc1	-60.3%
CNC(=S)NNC(=O)CNc1ccc(C)c(Cl)c1	-1.25%
COC(=O)c1ccc(Nc2ccc3nonc3c2[N+](=O)[O-])cc1	21.8%
CCOC(=O)C(=O)NC(C)CCc1ccccc1 (stereo not shown)	6.72%
CCc1ccc2c(c1)C1(NN=C(c3ccccc3)S1)C(=O)N2 (stereo not shown)	11.7%
CC(C)(C)CC(C)(C)NC(=S)NC1CCN(Cc2ccccc2)CC1	-16.9%
COc1ccc(CCC(=O)NCc2cnn(C)c2)cc1	-32.8%
CCCc1nnc(NC(=O)CCC(=O)N2CCCCC2CC)s1 (stereo not shown)	1.62%
CCS(=O)(=O)NC(C)C(c1cccs1)N1CCN(C)CC1 (stereo not shown)	14.1%
CCOc1ccc(C(=O)Nc2ccc3c(c2)OCCO3)cc1	-1.74%
CCC(c1nnc(SCC(=O)Nc2ccc(Cl)cc2C(F)(F)F)n1C1CCCCC1)N(C)C (stereo not shown)	-5.47%
O=C(CS(=O)(=O)c1ccccc1)c1ccc2c(c1)OCCO2	5.11%
CCOc1cc(Br)ccc1S(=O)(=O)N1CC(C)OC(C)C1 (stereo not shown)	-15.3%
CN(c1ccc(OC(=O)CC2OC(=O)c3ccccc32)cc1)S(=O)(=O)c1ccccc1 (stereo not shown)	-8.52%
O=C(CSC1=NS(=O)(=O)c2ccccc2N1)Nc1cccc(F)c1	5.45%
CCC(/C=C1\Sc2ccc(OC)cc2N1CC)=C\c1sc2ccc(OC)cc2[n+]1CCCS(=O)(=O)[O-]	15%
COc1ccc2c(c1OC)C(=O)OC2Nc1nc(-c2cc3cc(Br)ccc3oc2=O)cs1 (stereo not shown)	12.4%
CCOc1ccc(NC(=S)N2c3ccccc3CC2C)cc1 (stereo not shown)	31.1%
CC(C#N)Sc1ccc(S(=O)(=O)N(C)C2CCCCC2)cn1 (stereo not shown)	-28.1%

Source: PMC4336329 (PLoS ONE, 2015)
